{
  "source": "the supplement of paper PMC7826260",
  "note": "Some of the results follow. The data describe in vitro nicking of single-stranded DNA by Rep domains at 3 µM enzyme and 37 °C for 1 h; the strands have 90 letters, of which the middle is given. Values are log2 of uncut reads against the no-enzyme pool; uncut sequences lie near 0, cut ones below; no hit call is given. The scaling is to total reads; values above 0 arise when much of the pool is cut.",
  "data": [
    {"test_system": "T1, Rep nickase domain of tomato golden mosaic virus", "T1 sequence (residues 1-124 of Rep, tag left off)": "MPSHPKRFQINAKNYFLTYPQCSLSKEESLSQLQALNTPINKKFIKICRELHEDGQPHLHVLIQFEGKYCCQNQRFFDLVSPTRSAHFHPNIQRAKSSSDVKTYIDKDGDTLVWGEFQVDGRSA", "assay": "uncleaved DNA left, log2 of reads against the no-enzyme library (log2 ratio); higher = less cleavage (more negative = more Rep cleavage of the k-mer); sequences stand for … in CTCGTCCG…ACCGGAGA", "protocol": "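A pool of 90-nt single-stranded DNAs with seven random bases just before the constant AC of the nick site (name = the seven bases) was cut by 3 µM recombinant His6-SUMO-tagged Rep nickase domain (300 nM DNA, 50 mM HEPES pH 8.0, 50 mM NaCl, 1 mM MnCl2, 1 h, 37 °C, three replicates). Uncut DNA was amplified and sequenced.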", "values": [
      {"sequence": "GTTAGGA", "uncleaved DNA left (log2)": 0.241},
      {"sequence": "ATAGAGG", "uncleaved DNA left (log2)": 0.111},
      {"sequence": "CATGGTA", "uncleaved DNA left (log2)": 0.00526},
      {"sequence": "TTAGAGG", "uncleaved DNA left (log2)": -0.022},
      {"sequence": "CACCCTT", "uncleaved DNA left (log2)": -0.294},
      {"sequence": "CCTTCCT", "uncleaved DNA left (log2)": -0.107},
      {"sequence": "TTGTTTG", "uncleaved DNA left (log2)": -0.0178},
      {"sequence": "ATTAAGC", "uncleaved DNA left (log2)": -0.0165},
      {"sequence": "CGCGGTC", "uncleaved DNA left (log2)": -0.163},
      {"sequence": "CAAAAGA", "uncleaved DNA left (log2)": 0.0238},
      {"sequence": "TCCGCCC", "uncleaved DNA left (log2)": -0.294},
      {"sequence": "ATTGGGC", "uncleaved DNA left (log2)": -0.15},
      {"sequence": "GTGCCCA", "uncleaved DNA left (log2)": 0.0193},
      {"sequence": "CGAGAGT", "uncleaved DNA left (log2)": 0.13},
      {"sequence": "TACTAAA", "uncleaved DNA left (log2)": 0.0444},
      {"sequence": "CGCCGTT", "uncleaved DNA left (log2)": -0.176},
      {"sequence": "AGGACCC", "uncleaved DNA left (log2)": -0.0613},
      {"sequence": "AAACTCG", "uncleaved DNA left (log2)": 0.0153},
      {"sequence": "GTCGAAT", "uncleaved DNA left (log2)": 0.0272},
      {"sequence": "GTCTCGT", "uncleaved DNA left (log2)": 0.0802},
      {"sequence": "TAAACGT", "uncleaved DNA left (log2)": -0.511},
      {"sequence": "ACTGCCA", "uncleaved DNA left (log2)": 0.00722},
      {"sequence": "AATGGCG", "uncleaved DNA left (log2)": -0.037},
      {"sequence": "GGCATGG", "uncleaved DNA left (log2)": 0.121},
      {"sequence": "CACGCCC", "uncleaved DNA left (log2)": -0.0964},
      {"sequence": "GCTGTAT", "uncleaved DNA left (log2)": 0.0236},
      {"sequence": "TCAAACC", "uncleaved DNA left (log2)": -0.0317},
      {"sequence": "TAACACG", "uncleaved DNA left (log2)": -0.0604},
      {"sequence": "CCTATTA", "uncleaved DNA left (log2)": 0.0965},
      {"sequence": "TAAGAAT", "uncleaved DNA left (log2)": -0.0365},
      {"sequence": "TTATAGA", "uncleaved DNA left (log2)": 0.0275},
      {"sequence": "CCGAGTG", "uncleaved DNA left (log2)": 0.0715},
      {"sequence": "GCCGACT", "uncleaved DNA left (log2)": -0.238},
      {"sequence": "TACCATA", "uncleaved DNA left (log2)": 0.112},
      {"sequence": "AGCCTAA", "uncleaved DNA left (log2)": 0.0523},
      {"sequence": "TGCACAC", "uncleaved DNA left (log2)": -0.0573},
      {"sequence": "CTATCTA", "uncleaved DNA left (log2)": 0.00532},
      {"sequence": "TTTATCG", "uncleaved DNA left (log2)": -0.134},
      {"sequence": "GACACCG", "uncleaved DNA left (log2)": -0.058},
      {"sequence": "CATGCGT", "uncleaved DNA left (log2)": -0.133}
    ]}
  ]
}
